According to PubChem BioAssay AID1508624 (National Center for Advancing Translational Sciences (NCATS), 2021):
In all, about 48,000 compounds went through this assay and about 120 (0.25%) were called active. Roughly 4% stayed inconclusive and do not appear here. Calls follow the shape of the dose curve; as a rule, active = well fitted activation curve with a large enough effect; inconclusive = small, poorly fitted or top-dose-only effect, or another doubt; inactive = no such curve, though single readings can be large or run the other way. The list shows a part of the results.

assay: Primary qHTS for Identification of Small Molecule Activators of Huntingtin-Antisense Promoter Activity; conditions: HEK293 HTT-AS promoter firefly luciferase reporter, 24 h; series mostly up to 57.5 µM; activity change, positive = activation: at the top concentration; also: nearly all actives have a fitted effect of over 55% in size
Procedure, shortened: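 HEK293 luciferase promoter-reporter cells (2,500/well) plated 24 h, then compounds added at up to 57.5 uM final for 24 h at 37 °C. Firefly luminescence by Dual-Glo, normalized to vehicle (0%) and zero RLU (-100%).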

Row | Compound | activity change, positive = activation
1 | O=C(CCCn1c(=O)c2sccc2n(Cc2ccc(F)cc2Cl)c1=O)NCc1ccc2c(c1)OCO2 | inactive: -24.2%
2 | COCCn1c(C)cc(O)c(C(c2ccccc2OC)N2CCCCC2)c1=O (stereo not given) | inactive: -15%
3 | COc1ccc(C(CC(=O)Nc2ccc(OC)c(OC)c2)N2Cc3ccccc3C2=O)cc1 (stereo not given) | inactive: -18.8%
4 | O=C(Nc1cccc(C2=NCCN2)c1)Nc1cccc(C2=NCCN2)c1 | inactive: -18.8% [at 25.1 µM, percent change from vehicle, -100% = no light]
5 | Cc1ccc(C)c(N2CCN(C(=O)c3cccn3-c3nnc(N4CCCCC4)s3)CC2)c1 | inactive: -24.4%
6 | COc1cccc(CNC(=O)c2cc3c(=O)n(C)c4ccccc4c3n2C)c1 | inactive: -2.07%
7 | CCc1nc2ccc(C(=O)NCCc3ccc(OC)c(OC)c3)cc2nc1CC | inactive: 10.3%
8 | CCOc1ccccc1CNC(=O)c1[nH]c2ccccc2c1Sc1ccccc1 | inactive: -12.1%
9 | CCn1ccc2cc(S(=O)(=O)N3CCC(C(=O)NCCOC)CC3)ccc21 | inactive: -11.2%
10 | O=S(=O)(c1ccc(-c2cc(C(F)(F)F)on2)s1)N1CCN(c2cccc(Cl)c2)CC1 | inactive: -12.5%
11 | CCN1CCN(CCCNC(=O)c2cc3c(s2)-c2c(C)cccc2OC3)CC1 | inactive: -13.4%
12 | CCCOC(=O)c1ccc(N)cc1 | inactive: 21.6%
13 | Cc1nn2c(C(F)(F)F)cc(-c3ccc(OC(C)C)cc3)nc2c1C#N | inactive: 11.8%
14 | Cc1ccccc1OCC(=O)Nc1ccccc1C(=O)OCc1cc(=O)n2c(C)csc2n1 | inactive: -46.5%
15 | Cc1ccc2c(c1)c1c(n2CCc2ccc(C)nc2)CCN(C)C1 | inactive: -16.6%
16 | Cc1ccc(Nc2cc(C(=O)NC3CCCC3)c3ccccc3n2)c(C)c1 | inactive: -7.69%
17 | COc1ccc(NC(=O)CSC2=Nc3ccccc3C3=NC(Cc4ccccc4)C(=O)N23)cc1Cl (stereo not given) | inactive: -15.2%
18 | CN(Cc1ccccc1)C(=O)Cn1ncc2c3ccccc3n(Cc3cccc(Cl)c3)c2c1=O | inactive: -20.4%
19 | Cc1ccc(Cl)cc1Nc1sc(C(=O)c2ccccc2)c(N)c1S(=O)(=O)c1ccccc1 | inactive: -6.98%
20 | CCc1cnc2c(c1SCC(=O)NCc1ccccc1)c(=O)n(C)c(=O)n2C | inactive: -2.54%
21 | CC(C)(C)c1ccc(C(=O)N2CC(=O)Nc3ccc(F)cc3C2c2ccc(F)cc2)cc1 (stereo not given) | inactive: -31.8%
22 | Cc1cc(C)c2oc(-c3cccc(NC(=O)c4cc5ccccc5o4)c3)nc2c1 | inactive: 6.89% [at 11.5 µM, percent change from vehicle, -100% = no light]
23 | COc1cc(C2c3c(oc4ccccc4c3=O)C(=O)N2Cc2ccccc2Cl)ccc1O (stereo not given) | inactive: -10.3%
24 | COc1cc(CCC(=O)NCc2ccc3c(c2)CCN3C(=O)c2cccc(C)c2)cc(OC)c1OC | inactive: -8.34%
25 | CC(=O)OCC(=O)[C@@]1(O)CC[C@H]2[C@@H]3CCC4=CC(=O)C=C[C@]4(C)[C@H]3[C@@H](O)C[C@@]21C | inactive: -8.28%
